{"source": "the supplement of paper PMC10126150", "note": "Sequences with one replicate were seen in a single cluster, so their values are uncertain.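 Note: ATP exposure 15 min at 22 °C before imaging.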"}
{"test_system": "ATP", "experiment": "switch fluorescence ratio, 500 uM ATP over buffer (Cy3 cluster intensity, sum of 5 cycles each) (fold (ratio)); higher = stronger signal-on switching upon ATP binding; sequences stand for … in TCGTCGGCAGCGTCAGATGTGTATAAGAGACAGTTTTTTTTTTTTTTTTTTTTTTTTT…TC", "details": "aptamer strand: ATP DNA aptamer (quencher-CACCTGGGGGAGTATTGCGGAGGAAGG + anchor), 100 nM annealed; ATP concentration: 500 uM; one replicate", "in_short": "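Per cluster, summed Cy3 intensity from the target cycles was divided by that from the buffer cycles to give the fluorescence ratio, then averaged per switch-domain sequence. Clusters outside 100-1000 RFU were excluded. The Cy3-labelled switching-strand clusters, on a modified Illumina MiSeq flow-cell, were annealed to 100 nM quencher-labelled ATP aptamer and imaged in selection buffer, then after 15 min with 500 uM ATP at 22 °C, for five cycles with NaOH stripping and re-annealing between them.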"}
{"sequence": "GGAGAGAGGA", "switch fluorescence ratio": 1.06}
{"sequence": "GGAGAGATGT", "switch fluorescence ratio": 0.973}
{"sequence": "GGAGAGGCCA", "switch fluorescence ratio": 1.07}
{"sequence": "GGAGATAATA", "switch fluorescence ratio": 1.03}
{"sequence": "GGAGATACTT", "switch fluorescence ratio": 1.06}
{"sequence": "GGAGATGTCT", "switch fluorescence ratio": 0.987}
{"sequence": "GGAGATTACA", "switch fluorescence ratio": 1.04}
{"sequence": "GGAGCAAAGT", "switch fluorescence ratio": 2.05}
{"sequence": "GGAGCATTCG", "switch fluorescence ratio": 1.67}
{"sequence": "GGAGCCGAGG", "switch fluorescence ratio": 0.966}
{"sequence": "GGAGCGAGTA", "switch fluorescence ratio": 1.03}
{"sequence": "GGAGCGCGCC", "switch fluorescence ratio": 1.01}
{"sequence": "GGAGCTGCCT", "switch fluorescence ratio": 1.05}
{"sequence": "GGAGGAACTG", "switch fluorescence ratio": 1}
{"sequence": "GGAGGAATAG", "switch fluorescence ratio": 4.52}
{"sequence": "GGAGGGCGGC", "switch fluorescence ratio": 1.14}
{"sequence": "GGAGGGT", "switch fluorescence ratio": 0.954}
{"sequence": "GGAGGGTGT", "switch fluorescence ratio": 1.09}
{"sequence": "GGAGGTAGCG", "switch fluorescence ratio": 0.984}
{"sequence": "GGAGGTCGTG", "switch fluorescence ratio": 0.995}
{"sequence": "GGAGGTTGCA", "switch fluorescence ratio": 0.99}
{"sequence": "GGAGTAATGT", "switch fluorescence ratio": 1.29}
{"sequence": "GGAGTAGAGC", "switch fluorescence ratio": 1.11}
{"sequence": "GGAGTAGTTC", "switch fluorescence ratio": 1.02}
{"sequence": "GGAGTATACA", "switch fluorescence ratio": 0.983}
{"sequence": "GGAGTATATT", "switch fluorescence ratio": 0.994}
{"sequence": "GGAGTCGAGC", "switch fluorescence ratio": 0.98}
{"sequence": "GGAGTGAAGT", "switch fluorescence ratio": 0.968}
{"sequence": "GGATAAAGAG", "switch fluorescence ratio": 0.965}
{"sequence": "GGATAACCTT", "switch fluorescence ratio": 1.66}
{"sequence": "GGATAAGGCA", "switch fluorescence ratio": 1.03}
{"sequence": "GGATAATACG", "switch fluorescence ratio": 1.05}
{"sequence": "GGATACATTG", "switch fluorescence ratio": 0.979}
{"sequence": "GGATACCCTC", "switch fluorescence ratio": 0.997}
{"sequence": "GGATACGCAT", "switch fluorescence ratio": 2.09}
{"sequence": "GGATACTAAG", "switch fluorescence ratio": 1.03}
{"sequence": "GGATAGAAAA", "switch fluorescence ratio": 0.96}
{"sequence": "GGATAGCATA", "switch fluorescence ratio": 0.991}
{"sequence": "GGATATAAAA", "switch fluorescence ratio": 1.01}
{"sequence": "GGATATAGA", "switch fluorescence ratio": 1.03}
{"sequence": "GGATCAAGAA", "switch fluorescence ratio": 1.02}
{"sequence": "GGATCAATT", "switch fluorescence ratio": 1}
{"sequence": "GGATCAATTG", "switch fluorescence ratio": 0.982}
{"sequence": "GGATCCGGAT", "switch fluorescence ratio": 1.04}
{"sequence": "GGATCCGGGC", "switch fluorescence ratio": 1.05}
{"sequence": "GGATCGCATC", "switch fluorescence ratio": 1.14}
{"sequence": "GGATCGGTTA", "switch fluorescence ratio": 0.984}
{"sequence": "GGATCTAAG", "switch fluorescence ratio": 1.01}
{"sequence": "GGATCTGAGG", "switch fluorescence ratio": 1.03}
{"sequence": "GGATCTTTCG", "switch fluorescence ratio": 0.992}
{"sequence": "GGATGAAAAT", "switch fluorescence ratio": 0.988}
{"sequence": "GGATGAGATG", "switch fluorescence ratio": 1.01}
{"sequence": "GGATGATGTC", "switch fluorescence ratio": 0.78}
{"sequence": "GGATGCATCG", "switch fluorescence ratio": 0.968}
{"sequence": "GGATGCGAGG", "switch fluorescence ratio": 1.03}
{"sequence": "GGATGCGGGG", "switch fluorescence ratio": 0.989}
{"sequence": "GGATGCGTGC", "switch fluorescence ratio": 1.02}
{"sequence": "GGATGGAG", "switch fluorescence ratio": 0.977}
{"sequence": "GGATGGAGAT", "switch fluorescence ratio": 1}
{"sequence": "GGATGGAGTT", "switch fluorescence ratio": 0.972}
{"sequence": "GGATGGGTAC", "switch fluorescence ratio": 1.05}
{"sequence": "GGATGTCTGT", "switch fluorescence ratio": 0.994}
{"sequence": "GGATGTGTAG", "switch fluorescence ratio": 0.949}
{"sequence": "GGATGTTTGT", "switch fluorescence ratio": 0.992}
{"sequence": "GGATTAACTG", "switch fluorescence ratio": 1.08}
{"sequence": "GGATTCAAGT", "switch fluorescence ratio": 1.03}
{"sequence": "GGATTCTACC", "switch fluorescence ratio": 1.06}
{"sequence": "GGATTGCCAA", "switch fluorescence ratio": 0.963}
{"sequence": "GGATTGGCCC", "switch fluorescence ratio": 0.992}
{"sequence": "GGATTTAGGG", "switch fluorescence ratio": 0.958}
{"sequence": "GGATTTCTTC", "switch fluorescence ratio": 0.973}
{"sequence": "GGATTTTAAG", "switch fluorescence ratio": 1.02}
{"sequence": "GGCAAATGAC", "switch fluorescence ratio": 1.2}
{"sequence": "GGCAACACAC", "switch fluorescence ratio": 1.34}
{"sequence": "GGCAATGGAA", "switch fluorescence ratio": 1.02}
{"sequence": "GGCAATTCGT", "switch fluorescence ratio": 1.14}
{"sequence": "GGCAATTGAT", "switch fluorescence ratio": 0.99}
{"sequence": "GGCACAAGTG", "switch fluorescence ratio": 1.02}
{"sequence": "GGCACATCTT", "switch fluorescence ratio": 0.986}
{"sequence": "GGCACCCCAT", "switch fluorescence ratio": 1.07}
{"sequence": "GGCACGGCCT", "switch fluorescence ratio": 1.06}
{"sequence": "GGCAGAGAAC", "switch fluorescence ratio": 1.02}
{"sequence": "GGCAGATCAC", "switch fluorescence ratio": 1.02}
{"sequence": "GGCAGCAGCA", "switch fluorescence ratio": 1.07}
{"sequence": "GGCAGCCACG", "switch fluorescence ratio": 1.03}
{"sequence": "GGCAGCCGAC", "switch fluorescence ratio": 1.01}
{"sequence": "GGCAGGCATG", "switch fluorescence ratio": 1.01}
{"sequence": "GGCATCAGG", "switch fluorescence ratio": 1.09}
{"sequence": "GGCATCATAG", "switch fluorescence ratio": 0.996}
{"sequence": "GGCATCCTTA", "switch fluorescence ratio": 0.968}
{"sequence": "GGCATCGTGC", "switch fluorescence ratio": 0.983}
{"sequence": "GGCATGACAG", "switch fluorescence ratio": 0.963}
{"sequence": "GGCATGGTCT", "switch fluorescence ratio": 0.954}
{"sequence": "GGCATTGAAT", "switch fluorescence ratio": 1}
{"sequence": "GGCATTTCTT", "switch fluorescence ratio": 0.985}
{"sequence": "GGCATTTGCA", "switch fluorescence ratio": 1.02}
{"sequence": "GGCCACGAAA", "switch fluorescence ratio": 1.03}
{"sequence": "GGCCACTCGC", "switch fluorescence ratio": 1.02}
{"sequence": "GGCCATAAGT", "switch fluorescence ratio": 1.01}
{"sequence": "GGCCATAGAC", "switch fluorescence ratio": 1.05}
